“And” between values parts separate entries of the source, which are not always exact repeats. Identical values can stand only once.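 All cell lines were grown in 96-well plates and treated with compound for 48 hours. GI50 marks 50% less growth. TGI is the concentration that stops growth completely.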
tested on: NCI-H322M lung; test: NCI tumour cell line growth inhibition, 48 h

Row | Structure (SMILES) | TGI | GI50
1 | CC(=O)CCCCn1c(=O)c2c(nc(Br)n2C)n(C)c1=O | > 100 µM | 
2 | [N-]=[N+]=Nc1ccccc1-c1ccccc1[N+](=O)[O-] | > 100 µM | 
3 | COC1(CC[C@@H](C)COC2OC(CO)C(O)C(O)C2O)O[C@H]2C[C@H]3[C@@H]4CC=C5C[C@@H](OC6OC(CO)C(OC7OC(C)C(O)C(O)C7O)C(O)C6OC6OC(C)C(O)C(O)C6O)CC[C@]5(C)[C@H]4CC[C@]3(C)[C@H]2[C@@H]1C (some centres undefined) | 6.82 µM | 2.35 µM
4 | CCS(=O)C(=O)N(O)c1ccc(Cl)cc1 (centres undefined) | > 100 µM | 
5 | OCC#CCNCl | > 100 µM | 
6 | O=S1(=O)N2CN3CN(C2)CN1C3 | 363 µM | 
7 | O=C(Nc1ccc([N+](=O)[O-])cc1)Nn1cnnc1 | > 100 µM | 
8 | COc1cccc2c1-c1nc(N)c3c(OC)cccc3c1C2=O | > 100 µM | 
9 | Clc1nccc2c(-c3csc(-c4c[nH]c5ccc(Br)cc45)n3)c[nH]c12 | 22.5 µM | 3.54 µM
10 | Nc1nc(Nc2ccc(Cl)c(Cl)c2)nc2nc[nH]c12 | 36.6 µM | 
11 | O=C1N/C(=N\N=C\c2ccccc2)C(c2ccccc2)O1 (centres undefined) | > 100 µM | 
12 | COc1cc2oc(-c3cccc(C(=O)Nc4ccc(Cl)cc4)c3)cc(=O)c2c(OC)c1OC | > 100 µM | 2.56 µM
13 | CCCCC1=CSC(c2ccccc2)=C(c2ccccc2)S1 | > 100 µM | 
14 | CCCCOCCOCCOC1=CC(=O)c2c(O)ccc(O)c2C1=O | 3.06 µM | 
15 | CC(=O)Nc1[nH]n(C)c(=O)c1-c1nnc(C)s1 | > 100 µM | 
16 | O=C(O/N=C1\CCCC\C1=C/c1ccccc1)c1ccc([N+](=O)[O-])cc1 | > 100 µM | 
17 | Cc1c(O)c(=O)ccn1CCN | > 100 µM | 
18 | O=S(O)CCCCCSSc1ccccc1 | > 100 µM | 
19 | CN1CCN(CC(=O)N(C)c2ccc(N=C(c3ccccc3)c3c(O)[nH]c4ccc(C#N)cc34)cc2)CC1 | 14.6 µM | 2.51 µM
20 | CC(=O)Nc1ccc(C(=O)CCl)cc1 | 37.1 µM | 16.9 µM
21 | CCOC1OC(CO)C(O)CC1n1ccc(=O)[nH]c1=O (centres undefined) | > 100 µM | 
22 | O=C1NC(=NCCc2ccc(F)cc2)S/C1=C\c1ccc2ncccc2c1 | > 25 µM | > 25 µM
23 | CSC1=NC(=Nc2c(C)cccc2C)C2(CCC(C(C)(C)C)CC2)N1c1ccc(Cl)cc1 (centres undefined) | > 100 µM | > 100 µM
24 | CC(=O)OI1NC(=O)c2ccccc21 | > 100 µM | 
25 | O=Cc1c[nH]c2c(=O)[nH]cnc12 | > 100 µM | 
26 | CC1CC2C3CCC4=CC(=O)C=CC4(C)C3(F)C(O)CC2(C)C1(O)C(=O)COP(=O)(O)O (centres undefined) | > 500 µM | > 500 µM

Row | Structure (SMILES) | TGI | GI50
27 | CCCNC(=O)Nc1c([N+](=O)[O-])cc(C(F)(F)F)cc1[N+](=O)[O-] | > 100 µM | 
28 | N#C/C(=C\c1ccncc1)c1csc2ccccc12 | > 86.7 µM | 
29 | CN(C)c1ccc(/C=C\c2ccnc3ccccc23)cc1 | > 100 µM | 46.7 µM
30 | CCOC(=O)C(C)(NC(=O)c1ccc(NCc2ccc3nc(NC(=O)c4ccccc4)nc(NC(=O)c4ccccc4)c3c2)cc1)C(=O)OCC | 68 µM | 
31 | COCC(C)(C)N=CN1Cc2cc3ccccc3nc2C1 | > 100 µM | 
32 | O=C(CNc1ccccn1)Nn1cnc2ccc(S(=O)(=O)Nc3ccccn3)cc2c1=O | > 100 µM | 
33 | N#CC(NNC(=O)Cc1ccccc1)c1cccc(O)c1 (centres undefined) | > 100 µM | 
34 | O=C1Nc2ccc(Br)cc2C12CC(c1ccccc1)=NN2 (centres undefined) | > 100 µM | 6.97 µM
35 | Oc1ccc(Cl)cc1C(c1cc(Cl)ccc1O)C(Cl)(Cl)Cl | 5.1 µM | 1.85 µM
36 | COc1cc(/C=C/C(=O)c2cccc(-n3cc(-c4cc(OC)c(OC)c(OC)c4)[nH]c3=O)c2)cc(OC)c1OC | 16.5 µM | 3.61 µM
37 | O=C1Oc2ccccc2C1C/C(=N\Nc1ccccc1)c1ccccc1O (centres undefined) | > 100 µM | 
38 | COc1ccc(/C=c2\c(=O)[nH]c3nc4ccccc4c(=O)n23)cc1 | > 100 µM | 
39 | CCOC(=O)C(NC(=O)OCc1ccccc1)C(=O)O (centres undefined) | > 100 µM | 
40 | COc1cccc(/C=C/C(=O)c2ccc3cc(OC)ccc3c2)c1 | 47.3 µM | 14.4 µM
41 | CC(C)OC(=O)c1ccc(NCc2cc(O)ccc2O)cc1 | 98.8 µM | 
42 | COc1ccc2[nH]c3c(c2c1)[C@H](c1ccccc1)C[C@@H]1C(=O)N(c2ccccc2)C(=O)[C@H]31 | > 100 µM | 
43 | CCOC(=O)c1c[nH]c(C(=O)OCC)c1-c1cccn1-c1ccccc1 | 66.2 µM | 
44 | FC(F)(F)c1ccc2c(c1)N(CCCNCCN1CCOCC1)c1ccccc1S2 | 23.2 µM | 
45 | CC1=NN=C(C)C1N=Nc1ccc2nc(C)[nH]c2c1 | > 100 µM | 
46 | CC1(C)CCN2C(=O)C34CCCC3CC21S4 (centres undefined) | > 100 µM | 
47 | COC(=O)C1CC2C=CC=CC(=O)C2(C)C1 (centres undefined) | > 100 µM | 
48 | O=C(Nc1ccc(Oc2ccc(F)cc2)cc1)[C@@H]1C[C@@H](Cc2ccc(F)cc2)CN1C(=O)Cn1ccnn1 | > 65.7 µM | 16.8 µM
49 | S=c1sc2c(s1)SC(c1ccccc1)CS2 (centres undefined) | > 100 µM | 
50 | CCOC(=O)[C@@H](C)C[C@H](Cc1ccccc1)NC(=O)c1csc([C@@H](C[C@H](C(C)C)N(C)C(=O)[C@@H](NC(=O)[C@H]2CCCCN2C)C(C)(C)CC)OC(C)=O)n1 | > 16.7 µM | < 0.00167 µM
51 | CC1=C(c2nc3ccccc3s2)C(=O)OC1(C)C | > 100 µM | 
52 | CO/C(N)=C(\C#N)N=Cc1ccc2ccccc2c1 | > 100 µM | 

Row | Structure (SMILES) | TGI | GI50
53 | C=CCCC1(O)C(O)C(CO)O[C@H](O[C@@]2(CO)OC(CO)C(O)C2O)C1O (some centres undefined) | > 100 µM | 
54 | CCc1n[nH]c(=O)n1CCCCCCCCn1c(CC)n[nH]c1=O | > 100 µM | 
55 | CCN(CC)CCCNc1c2c(Cl)cc(Cl)cc2nc2nc(=O)[nH]c(C)c12 | > 100 µM | 
56 | CC(C)N(C(=O)C12C3C4C1C1C2C3C41C#N)C(C)C (centres undefined) | > 100 µM | 
57 | CC1(C)CCC(Sc2ccccc2)O1 (centres undefined) | > 100 µM | 
58 | O=C(O)C1=C/C(=C(/c2ccccc2)c2cc(C(=O)O)c(O)c3ccccc23)c2ccccc2C1=O | > 100 µM | 
59 | Cc1c(C)c2c(c(N)c1C#N)C(=O)N(O)C2=O | > 100 µM | 
60 | Nc1nc2c(N)cc(C(F)(F)F)cc2nc1-c1ccccc1 | > 100 µM | 
61 | CC1=CC(=O)CC2(C)CCC(C(C)CC(=O)CC(C)C)CC12OO (centres undefined) | > 100 µM and 47.2 µM | > 100 µM and 21.6 µM
62 | Cc1ccccc1N=Nc1c(O)ccc2ccccc12 | > 100 µM | 
63 | C[C@@H](CC(O)C(O)C(C)(C)O)C1CCC23CC12CCC1[C@@]2(C)CCC(O)C(C)(C)C2CC(OC2OC(CO)C(O)C(O)C2O)[C@]13C (some centres undefined) | > 10 µM | 
64 | Cn1c(=O)c2[nH]c(N=O)nc2n(C)c1=O | > 100 µM | 
65 | O=C1NC(=S)S/C1=C\c1cn(-c2ccccc2)nc1-c1ccccc1 | 31.3 µM | 7.63 µM
66 | O=C1NC2NC3NC(=O)NC3NC2N1 (centres undefined) | > 100 µM | 
67 | Cc1nc(N)nc(N)c1CCCCc1ccc(N)cc1 | 23.2 µM | 
68 | COC(=O)C(=O)Cc1nc2ccccc2s1 | > 100 µM | 
69 | COc1ccc(-c2cc(-c3ccc(Nc4nc(Nc5ccccc5)nc(Nc5ccc(Cl)cc5)n4)cc3)nc(N)n2)cc1 | > 50 µM | 7.3 µM
70 | NC(N)=N/N=C/c1c(-c2ccsc2)nc2n1CCS2 | 44 µM | 16.8 µM
71 | CCOC(=O)CSc1cc(Cl)c(C)cc1S(=O)(=O)/N=C(/N=C/c1ccc([N+](=O)[O-])s1)NNC | 89.9 µM | 26 µM
72 | Nc1nnc2c(-c3ccccc3)[nH]nc2n1 | > 100 µM | 
73 | CN(C)c1ccc(/C=C/C(=O)c2ccc(O)cc2)cc1 | > 100 µM | 
74 | CC1(C)OP(=O)(c2ccccc2)C=C1Sc1ccc([N+](=O)[O-])cc1[N+](=O)[O-] (centres undefined) | > 100 µM | 
75 | O=C(NN1C(=O)C(Cl)C1c1ccccc1O)c1ccccc1O (centres undefined) | > 100 µM | 
76 | CNC(=O)c1n[nH]n(C2CCCCC2)c1=S | > 100 µM | 
77 | CCC(NC(C)c1ccccc1)C(=O)c1ccc(OCc2ccccc2)c(OCc2ccccc2)c1 (centres undefined) | > 100 µM | 
78 | NS(=O)(=O)c1ccc(Nc2cc(-c3ccc(O)c(F)c3)[nH]n2)cc1 | > 25 µM | 12.4 µM

Row | Structure (SMILES) | TGI | GI50
79 | CC(=O)OCC1OC(n2c(=S)n(-c3ccc([N+](=O)[O-])cc3)c(=O)c3ccccc32)C(OC(C)=O)C(OC(C)=O)C1OC(C)=O (centres undefined) | > 100 µM | 
80 | CN(C)CCNc1ccc2ncn3c4ccccc4c(=O)c1c23 | 8.11 µM | 
81 | CCOC(=O)c1c2ccc(/C=C/c3ccccn3)ccc-2c(C(=O)OCC)c1N | 3.79 µM | 
82 | CN=C(N)c1ccc(N=C(N)c2ccc(-c3ccc(C(N)=Nc4ccc(C(N)=NC)cc4)cc3)cc2)cc1 | > 100 µM | > 100 µM
83 | O=NN1C(c2ccccc2)CNC(=O)CC1c1ccccc1 (centres undefined) | > 100 µM | 
84 | NS(=O)(=O)c1ccc(NC(=O)N/N=C/c2ccccc2O)cc1 | > 100 µM | 
85 | O=C/C(=C1/C=Cc2cc([N+](=O)[O-])ccc2S1)c1ccccc1 | > 100 µM | 
86 | Nc1nncc2c1c(Br)cn2C1OC(CO)C(O)C1O (centres undefined) | > 100 µM | 
87 | CCOC(=O)N/N=C(/N)c1cccc(Br)c1 | > 100 µM | 
88 | O=C1Nc2ccc(Cl)cc2/C1=C\c1c(-c2ccc(Cl)cc2)nc2sc(C3CC3)nn12 | 19.2 µM | 4.6 µM
89 | COc1cc(CNCCCCCCN2C(=O)c3cccc4cccc(c34)C2=O)ccc1O | 18.6 µM | 4.98 µM
90 | CCN(CC)c1ccc(/C=C/C(=O)c2ccc(Nc3nc(Nc4ccccc4)nc(Nc4ccccc4)n3)cc2)cc1 | > 100 µM | 6.36 µM
91 | CCCn1c2c(c3ccccc3c1=O)C(=O)c1ccccc1-2 | > 100 µM | 
92 | CCOC1=C2N=C(C(CC)c3ccccc3F)N=C2C(=O)c2ccccc21 (centres undefined) | > 100 µM | 
93 | O=C1CC(c2c[nH]c3ccc(F)cc23)C(=O)N1 (centres undefined) | > 100 µM | > 100 µM
94 | COc1cc2cc(Oc3ccc(NC(=O)Nc4cc(C(F)(F)F)cc(C(F)(F)F)c4)cc3)c(C)nc2cc1OCCN1CCOCC1 | 6.87 µM | 1.82 µM
95 | CC(C)=CCc1cc2c(cc1O)C1=C(C(=O)C3=C(C1=O)S(=O)(=O)CCN3)C(C=C(C)C)O2 (centres undefined) | 1.64 µM | 0.47 µM
96 | Cc1cc2ncn(-c3nc4ccccc4nc3C(C#N)S(C)(=O)=O)c2cc1C (centres undefined) | > 100 µM | 
97 | C[C@H]1CC[P+](Cc2ccccc2)(c2ccccc2)C1 (some centres undefined) | > 100 µM | 
98 | CCOC(=O)Cc1cc(OC)c(OC)cc1/C(Cl)=C(\CO)c1ccc(OC)c(OC)c1 | > 100 µM | 
99 | c1ccc(-c2oc(-c3ccccc3)c(CN3CCCCC3)c2CN2CCCCC2)cc1 | 16.7 µM | 3.83 µM
100 | CC(C)/C=C1\CCC(CN(C)C)C1=O (centres undefined) | 31.5 µM | 
101 | O=C1C(Cl)N(c2c(Cl)cccc2Cl)C1c1c[nH]c2ccccc12 (centres undefined) | > 100 µM | 
102 | Cc1cc(=O)oc2ccc(OC/C=C3\CCC(=O)O3)cc12 | 37.4 µM | 14.3 µM
103 | Cc1ccc(NC(=O)CCc2nc(=S)[nH][nH]2)cc1 | > 100 µM | 
104 | CCNC(=O)C(C)C1CCC2(C)C=CC(=O)C(C)=C2C1O (centres undefined) | > 100 µM | 
